Assay results as given in publication PMC4336329 (PLoS ONE, 2015).
Screen size: about 310,000 compounds; about 2,200 (0.71%) showed an effect of 50% or more. The effect is printed as a negative number. This is one part of the list.

biological target: human ether-à-go-go-related gene (hERG) potassium channel (human, UniProt Q12809); test: primary screen, population patch clamp on CHO cells stably expressing hERG
Sequence (Q12809 whole entry, looked up): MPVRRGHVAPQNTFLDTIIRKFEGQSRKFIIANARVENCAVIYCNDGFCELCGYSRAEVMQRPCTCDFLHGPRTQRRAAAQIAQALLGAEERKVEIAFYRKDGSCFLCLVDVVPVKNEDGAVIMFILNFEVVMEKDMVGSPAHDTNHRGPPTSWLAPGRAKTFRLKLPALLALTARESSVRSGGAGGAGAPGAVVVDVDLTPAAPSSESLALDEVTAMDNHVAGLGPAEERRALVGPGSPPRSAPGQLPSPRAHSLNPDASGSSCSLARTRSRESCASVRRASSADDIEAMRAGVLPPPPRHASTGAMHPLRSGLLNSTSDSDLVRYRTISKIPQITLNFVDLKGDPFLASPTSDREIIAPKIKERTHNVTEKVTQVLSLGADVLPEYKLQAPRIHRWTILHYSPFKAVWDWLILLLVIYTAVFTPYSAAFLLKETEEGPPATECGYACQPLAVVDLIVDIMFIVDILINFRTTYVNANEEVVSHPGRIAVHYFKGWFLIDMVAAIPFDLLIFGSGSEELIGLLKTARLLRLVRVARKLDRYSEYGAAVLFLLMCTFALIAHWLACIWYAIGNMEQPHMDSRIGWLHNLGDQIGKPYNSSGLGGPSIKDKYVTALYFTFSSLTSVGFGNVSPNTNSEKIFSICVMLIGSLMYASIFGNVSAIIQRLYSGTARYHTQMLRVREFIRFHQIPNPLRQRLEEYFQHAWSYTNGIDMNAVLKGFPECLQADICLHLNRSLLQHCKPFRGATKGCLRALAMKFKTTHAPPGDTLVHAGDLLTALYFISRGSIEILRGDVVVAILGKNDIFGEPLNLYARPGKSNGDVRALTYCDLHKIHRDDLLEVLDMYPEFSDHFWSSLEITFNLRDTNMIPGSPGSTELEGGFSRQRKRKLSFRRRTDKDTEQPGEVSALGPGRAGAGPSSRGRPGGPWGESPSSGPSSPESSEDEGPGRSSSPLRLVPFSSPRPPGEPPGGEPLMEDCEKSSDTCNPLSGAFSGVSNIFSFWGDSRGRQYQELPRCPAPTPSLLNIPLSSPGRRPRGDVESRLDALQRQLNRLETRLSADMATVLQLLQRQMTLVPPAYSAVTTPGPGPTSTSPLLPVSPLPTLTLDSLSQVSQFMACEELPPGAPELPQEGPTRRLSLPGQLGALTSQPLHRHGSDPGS

Row | SMILES | hERG current change (%, negative = inhibition) at 1uM [%]
1 | CN(C)C(=O)NC1C=CS(=O)(=O)C1 (stereo not shown) | 6.99
2 | O=C(Nc1ccccc1C(=O)Nc1ccc2c(c1)OCO2)c1cccs1 | 5.03
3 | Cc1c(Cl)c(C(=O)N2CCCC2)nn1C | 11.3
4 | O=C(c1ccc(Br)s1)N1CCN(Cc2ccc3c(c2)OCO3)CC1 | -5.73
5 | CCc1ccccc1N1C(=O)CC(Sc2nccc(C)n2)C1=O (stereo not shown) | 7.89
6 | Cc1ccccc1-n1nnnc1Sc1nnnn1-c1ccccc1 | -2.15
7 | CSc1ccc(/C=N/NC(=O)c2ccc(O)cc2)cc1 | 14.4
8 | CCSc1nc2ccc(C)cc2cc1C#N | 4.67
9 | O=C(COC(=O)COc1ccccc1[N+](=O)[O-])NC1CCCCC1 | -1.3
10 | Cc1ccc2nc(-c3cccc(NS(C)(=O)=O)c3)cc(-c3ccccc3)c2c1 | 11.9
11 | CS(=O)(=O)N1CCCC(C(=O)Nc2cccc(F)c2)C1 (stereo not shown) | 14
12 | COc1cccc(OC)c1NC(=O)CN1CCC(NC(=O)c2cccc(F)c2)CC1 | 6.24
13 | O=C(Nc1ccccc1C(=O)O)c1cccc(NS(=O)(=O)c2ccc(Br)cc2)c1 | 21.8
14 | CC1=C(c2ccc(C)cc2)[N+](=O)C(C)(C)N1[O-] | 10.2
15 | O=C(Nc1ccc(S(=O)(=O)N2CCCCC2)cc1)c1ccc(F)cc1 | 8.66
16 | Cc1ccc(S(=O)(=O)NCc2csc(C)n2)cc1 | 12.4
17 | CCN(CC)C(=O)c1cc(-c2ccc(Br)cc2)on1 | 1.22
18 | CC(C)(C)n1nnnc1C(c1cccnc1)N1CCN(C(=O)c2ccco2)CC1 (stereo not shown) | 7.03
19 | COc1cc(CN2CCCC(C(=O)N3CCc4ccccc4C3)C2)cc(OC)c1OC (stereo not shown) | -23.1
20 | CCOc1ccc2nc(C)cc(Nc3ccc4c(c3)OCCO4)c2c1.Cl | -47

Row | SMILES | hERG current change (%, negative = inhibition) at 1uM [%]
21 | CC1(C(O)(C#CCN2CCCCC2)c2ccccc2)CCCC1.Cl (stereo not shown) | 1.41
22 | COc1ccc(CCNc2cc(C)[nH]c(=O)c2)cc1OC | 18.8
23 | COc1ccc(NC(=O)N2CCCC(CNS(=O)(=O)c3cccs3)C2)c(C)c1 (stereo not shown) | 14.2
24 | C#CCNc1ccc(C(=O)OCC)cc1 | 5.76
25 | O=C(CCc1ccccc1O)N/N=C/c1ccc(Sc2cccc3cccnc23)o1 | 16.9
26 | Cc1cc(C)c(NC(=O)COC(=O)c2ccc([N+](=O)[O-])s2)c(C)c1 | 4.26
27 | Cc1cccc2cc(COC(=O)C(C)(C)C)c(=O)[nH]c12 | 10.8
28 | CC1CCCCC1NC(=O)CSc1nnc(-c2ccco2)n1C (stereo not shown) | 12.1
29 | Cc1ccc(/C=N/n2c(C)nnc2C)cc1 | 3.87
30 | Cc1ccc(SCc2ccc(C(=O)N3CCCC3)cc2)cc1 | 8.25
31 | CC(C)C12CN3CC(C(C)C)(CN(C1)C31C(=O)Nc3ccccc31)C2=O (stereo not shown) | 12.3
32 | CN(C)S(=O)(=O)N(CC(=O)Nc1ccc(F)c(F)c1)c1ccccc1 | -11.5
33 | CC(c1ccncn1)N(C)Cc1nc(Cc2ccccc2F)no1 (stereo not shown) | 17.7
34 | COc1ccc2sc(C)nc2c1NC(C)=O | 8.19
35 | CCOc1ccc(C2/C(=C(/O)c3ccc4c(c3)CC(C)O4)C(=O)C(=O)N2CC2CCCO2)cc1 (stereo not shown) | 9.37
36 | CC(=O)N1CCc2c(sc(NC(=O)Cc3ccc(F)cc3)c2C#N)C1 | 17.6
37 | CCC(CO)Nc1ccc(-c2nn(C)c(=O)c3ccccc23)cc1[N+](=O)[O-] (stereo not shown) | 0.743
38 | CCOc1ccccc1NC(=O)N1CCC(c2nc3ccccc3[nH]2)CC1 | -7.7
39 | CC(=O)O[C@H]1CC[C@H]2[C@@H]3CCc4cc(O)ccc4[C@H]3CC[C@]12C | -2.87
40 | CCCCN(CCCNC(=O)C1CCN(S(=O)(=O)CC)CC1)c1ccccc1 | -16.8

Row | SMILES | hERG current change (%, negative = inhibition) at 1uM [%]
41 | COC(=O)c1ccc(N2C(=O)CC(N(C)Cc3ccccc3)C2=O)cc1 (stereo not shown) | 13.1
42 | Cc1ccc(C2=NN(C(=O)CCC(=O)O)C(c3cccc([N+](=O)[O-])c3)C2)cc1 (stereo not shown) | 15.6
43 | Cc1ccc(C(O)(C(=O)NN(C(=O)c2ccccc2)c2ccccc2)c2ccc(C)cc2)cc1 | 5.32
44 | Cc1ccccc1S(=O)Cc1ccc(C(=O)NCCN2CCOCC2)o1 (stereo not shown) | 25.5
45 | COc1ccc(CCCC(=O)NCc2ccccc2)cc1C | 12.7
46 | CC1(C)CC(=O)C2=C(C1)N(c1ccc(F)cc1)C(=O)CC2c1cccnc1 (stereo not shown) | 10.1
47 | Fc1cccc(NC(=S)NCCN2CCOCC2)c1 | 4.14
48 | CC1(C)CC(=O)C(N=Nc2ccc(Br)cc2)=C(O)C1 | 9.56
49 | O=C(N/N=C/c1cccc(OC(=O)c2ccc3c(c2)OCO3)c1)c1cncc(Br)c1 | 15.6
50 | Cn1c(SCC(O)c2ccccc2)nnc1-c1ccc2ccccc2c1 (stereo not shown) | -4.32
51 | O=C(Cn1nc(Br)nc1Br)c1ccccc1 | 10.2
52 | CCn1c(=O)n(CC)c2cc(S(=O)(=O)N3CCOCC3)ccc21 | 12.2
53 | Br.COc1ccccc1Nc1nc(-c2cccc(N3C(=O)c4ccccc4C3=O)c2)cs1 | 12.3
54 | O=C(C1CCCN(Cc2cccc(Cl)c2)C1)N1CCCCC1.O=C(O)C(=O)O (stereo not shown) | 11.9
55 | Cc1ccc(-c2csc(NC(=O)CCCc3cccs3)n2)cc1 | 7.8
56 | Cc1cccc2nc(CNC(=O)C3CCC(=O)N(Cc4ccccc4F)C3)cn12 (stereo not shown) | 13.7
57 | CCC(=O)N1CCc2cc(S(=O)(=O)N3CCCCC3CC)ccc21 (stereo not shown) | 14.1
58 | O=C(c1ccccc1)N1CCCC(C(=O)N2CCCCCC2)C1 (stereo not shown) | 7.12
